The record followed here is article PMC12136788.

This is one part of the list.

First the molecules themselves.
B1: chr22:19452774:19452775:-_ENSG00000070010_ENST00000399523|hu_hu|hu_hu_hu_mus_False|28_108 (ssRNA)
RNA: GGGAGUUCUACAGUCCGACGAUCCUUUUCAUUAUAGUUGAUAGCAAUCACAUCUCCAGUCGUCAGACAGGCGAAGUUUCUCAAUGCAUUUUCUAAUACCGCUUUAGGGUUGGUGAUAUCCAGGAAGUCUGGGCUCUGAGGCUGCAACAGAGGAUUGAGCAUCA
B2: 96524325_96529108_522_3pUTR_ENSMUSG00000031751_ENSMUST00000053766|mouse|control|control (ssRNA)
RNA: GGGAGUUCUACAGUCCGACGAUCAUGAACUUGUAGAAAAUAAAAUUCCAAAACUUGUCUUUGAGAUGCUGUCUUUCACUCACUCGAAGAGGGCCGAACACAAUACACUGGAUAAGCUUAGCCACCAACAUCAAAACACAGCAACAACAGAGGAUUGAGCAUCA
B3: 156051411_156051531_318_3pUTR_ENSG00000254726_ENST00000532414|human|control|control (ssRNA)
RNA: GGGAGUUCUACAGUCCGACGAUCCAGGCGCAGCUCGGCCUCUUUGUAGAGAGCGCAGAGCUUGGCGUCGCUCGCCCCUUUGGGGGCGGUGGGGGGCUGGGGCGUCUGCGCUGCGGGGGCCGCCGUCGGGGCGGCCGGGGGCGCCAACAGAGGAUUGAGCAUCA
B4: chr17:62495851:62495852:-_ENSG00000108654_ENST00000581693|hu_mus|FALSE|FALSE (ssRNA)
RNA: GGGAGUUCUACAGUCCGACGAUCUCACUGUACAGUUACUUUUGUGAAAACACUGCCUGCAUUUUCUAGUACAAAAAAAACCUAAAAAUUGUUUCAGGAAUGUAGAGAAAUAUCCAACUUAAAUAGCGAAAAAAGUGCACCAUACAACAGAGGAUUGAGCAUCA
B5: chr10:33221514:33221515:-_ENSG00000150093_ENST00000302278|perfect_dup|motif|central (ssRNA)
RNA: GGGAGUUCUACAGUCCGACGAUCAUUUGGCCCUGCUUGUAUACAUUCUCCACAUGAUUUGGCAUUUGCUUUUAAACAUCGGUUUUCAUCUGUUUGAGCAAACACACAGCAAACUGAACUGAUCAGUCCAAUCCAGAAAAUUGGCAACAGAGGAUUGAGCAUCA
B6: chr2:198351390:198351391:-_ENSG00000144381_ENST00000345042|hu_hu|hu_hu_hu_mus_False|28_88 (ssRNA)
RNA: GGGAGUUCUACAGUCCGACGAUCUCAUUCCCACCCUCCACAGAAAGGCUGCUUAACAACUCUCAUGUGGUGACACAGCGCUACAGUCCUGAUGCUCACAGAACAGUAGUAAAAAUGCAGUGAUUUAAGUUGAAAGCAGGACACCAACAGAGGAUUGAGCAUCA

In the test the target is T1, UNK ZnF1-3 (human, UniProt Q9C0B0 31-174).
T1 sequence: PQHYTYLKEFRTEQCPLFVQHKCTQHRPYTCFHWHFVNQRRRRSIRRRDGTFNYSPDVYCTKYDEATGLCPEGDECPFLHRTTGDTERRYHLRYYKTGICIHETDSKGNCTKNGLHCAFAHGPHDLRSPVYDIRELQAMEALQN
Nature of the test: nsRBNS (natural sequence RNA bind-n-seq); RBNS binding buffer (assumed for nsRBNS): 25 mM Tris pH 7.5, 150 mM KCl, 3 mM MgCl2, 0.01% Triton X-100, 500 ug/ml BSA, 20 U/ml SUPERase-In, 4 C; UNK is unkempt and MSI1 is Musashi-1; names of the RNAs are library labels; protein concentration not given here; high values mean tight binding.
Molecule B1 gave a binding signal of 0.845 enrichment R. In the case of B2 it was 2.17 enrichment R; in that of B3, 0.651 enrichment R; in that of B4, 1.09 enrichment R. As to B5, the binding signal came out at 1.09 enrichment R. B6 had a binding signal of 1.3 enrichment R.
